The campaign covered roughly 310,000 compounds. About 14,000 (4.5%) showed an effect of 50% or more. The effect is printed as a negative number. Some of the results follow.
target: human ether-à-go-go-related gene (hERG) potassium channel (human, UniProt Q12809); assay: primary screen, population patch clamp on CHO cells stably expressing hERG
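Further: peak tail current of the secondary pulse compared with the same well before compound.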

Chain of human ether-à-go-go-related gene (hERG) potassium channel (Q12809 whole entry, looked up): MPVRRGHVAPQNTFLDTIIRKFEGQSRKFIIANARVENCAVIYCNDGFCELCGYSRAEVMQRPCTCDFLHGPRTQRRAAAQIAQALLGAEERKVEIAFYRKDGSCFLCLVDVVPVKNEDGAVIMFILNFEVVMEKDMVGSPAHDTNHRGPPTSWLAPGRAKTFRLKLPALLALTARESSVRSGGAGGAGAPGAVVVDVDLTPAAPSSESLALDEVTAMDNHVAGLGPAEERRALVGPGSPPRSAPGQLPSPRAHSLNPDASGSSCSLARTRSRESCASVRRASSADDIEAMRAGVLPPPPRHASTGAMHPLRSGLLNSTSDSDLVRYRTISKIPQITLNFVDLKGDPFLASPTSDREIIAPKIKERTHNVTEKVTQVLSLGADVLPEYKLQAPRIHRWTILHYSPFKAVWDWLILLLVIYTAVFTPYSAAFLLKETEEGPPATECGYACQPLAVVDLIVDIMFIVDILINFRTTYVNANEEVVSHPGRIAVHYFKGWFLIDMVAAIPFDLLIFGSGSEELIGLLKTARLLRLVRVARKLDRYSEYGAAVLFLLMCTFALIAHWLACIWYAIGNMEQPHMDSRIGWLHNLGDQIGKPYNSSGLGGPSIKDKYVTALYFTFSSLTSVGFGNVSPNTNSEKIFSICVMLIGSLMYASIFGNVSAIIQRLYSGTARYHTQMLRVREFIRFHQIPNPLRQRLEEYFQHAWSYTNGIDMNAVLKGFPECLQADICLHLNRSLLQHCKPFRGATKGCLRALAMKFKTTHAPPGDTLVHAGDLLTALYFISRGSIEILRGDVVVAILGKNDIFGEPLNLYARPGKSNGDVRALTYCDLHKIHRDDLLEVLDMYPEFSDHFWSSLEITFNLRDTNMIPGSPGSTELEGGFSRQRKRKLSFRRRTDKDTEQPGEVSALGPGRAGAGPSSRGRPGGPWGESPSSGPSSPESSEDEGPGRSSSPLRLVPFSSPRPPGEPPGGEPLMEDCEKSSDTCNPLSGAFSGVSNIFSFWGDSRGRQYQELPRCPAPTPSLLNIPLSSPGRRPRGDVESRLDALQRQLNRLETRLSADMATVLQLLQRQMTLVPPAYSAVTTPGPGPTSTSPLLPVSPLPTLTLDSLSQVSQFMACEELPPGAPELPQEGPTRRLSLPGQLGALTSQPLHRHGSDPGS

SMILES | hERG current change (%, negative = inhibition) at 10uM [%]
CCOC(=O)c1[nH]c(C)c(/C=N/O)c1C | 1.76
COCCOCC(O)CN1CCN(c2ccccc2)CC1.O=C(O)C(=O)O (stereo not shown) | -3.37
COc1cc(OC)cc(-c2nc3nc(C)c(CCC(=O)O)c(C)n3n2)c1 | -21.7
COc1ccc(C(=O)NCC(=O)OCC(=O)N2CC(C)CC(C)C2)cc1 (stereo not shown) | 6.86
CN1c2ccccc2C(O)=C(C(=S)Nc2ccc(Cl)cc2)S1(=O)=O | -0.528
Cc1ccccc1-c1nc2ccccc2c(=O)n1C1CCS(=O)(=O)C1 (stereo not shown) | -8.07
CSc1ccc(C(=O)C2CCCN(C)C2)cc1 (stereo not shown) | -23.1
CCOc1ccc(CCNC(=O)COC(=O)C2CCN(c3ccc(C(F)(F)F)cn3)CC2)cc1OCC | -10.9
Cc1cc(OC(=O)c2ccccc2Cl)ccc1N1C(=O)CCC1=O | -1.98
O=C1COc2ccc(C(=O)NCc3ccc4c(c3)OCO4)cc2N1 | -26.5
CC(C)NC(=O)c1cc2c(C(F)(F)F)nn(C)c2s1 | 19.9
CC(C)C(=O)NC(=S)Nc1ccc(S(=O)(=O)N2CCN(C)CC2)cc1 | -6.57
Cc1ccc(NP(=O)(Oc2ccccc2F)Oc2ccccc2F)cc1 | -2.48
O=[N+]([O-])c1ccc(N2CCN(C(=S)NC3CCCCC3)CC2)cc1 | -53
Cc1ccc2c(C(=O)CN3CCC4(CC3)OCCO4)c(C)[nH]c2c1 | -3.88
S=c1[nH]nc(-c2cccc(Cl)c2)n1CCN1CCCCC1 | -16.2
CCCc1nc(SCC(=O)N2CCCc3ccccc32)c2c(=O)n(C)c(=O)n(C)c2n1 | -25.1
Fc1ccc(CNc2nc3ccccc3n3nnnc23)cc1 | 6.03
Cc1ccnc(NS(=O)(=O)c2ccc(NC(=O)c3ccccc3F)cc2)n1 | 19.2
COc1ccccc1-c1cc(C(=O)Nc2cccnc2)no1 | -15.9
COc1ccc(-n2c(=O)c3ccccc3n(CC(=O)OCc3ccccc3)c2=O)cc1OC | -1.5
CNC(=S)Nc1cccc(-c2cnc3ccccc3n2)c1 | -35.2
O=C(N/N=C/c1ccc(OCC2COCCO2)cc1)c1ccc(Br)cc1 (stereo not shown) | 7.8

SMILES | hERG current change (%, negative = inhibition) at 10uM [%]
Cc1cccc(NC(=S)NC(=O)/C=C/c2ccccc2)n1 | 12.5
CCOC(=O)Nc1ccc2c(CN3CCC(C(=O)OC)CC3)cc(=O)oc2c1 | 17.4
S=C(NCCN1CCOCC1)Nc1ccc(Nc2ccccc2)cc1 | -11.7
CC(C)[C@H](NC(=O)N1CC(=O)Nc2ccccc21)C(=O)N[C@@H](Cc1ccccc1)C(=O)O | 5.77
COc1ccc(CCNC(=O)COc2ccc(S(=O)(=O)NC(C)C)cc2)cc1OC | 6.8
COc1ccc(NC(=O)Cn2nnc(-c3ccccc3F)n2)cc1 | 8.49
C(=N\Nc1ccccn1)/c1ccc2c(c1)OCCO2 | -6.12
Fc1cccc(Cl)c1CSc1ccc(-c2ccco2)nn1 | 1.19
O=C(CSc1nc2ccccc2s1)Nc1ncccn1 | 13.4
COC(=O)CN1C(=O)[C@H]2[C@@H](c3ccc(C)o3)N3C(=O)CN(CCO)C(=O)[C@@]3(Cc3ccccc3)[C@H]2C1=O | 4.43
Clc1cccc(CN2CCCCC2c2cccnc2)c1 (stereo not shown) | -6.42
N#CC1(NC(=O)Cn2cc(C(F)(F)F)cc(Cl)c2=O)CCCCC1 | 13.3
Cc1ccc2nc(-c3ccc(O)c(O)c3)cn2c1.Cl | 4.68
CC(=O)NCCn1c(SCc2ccc(C)cc2C)nc2ccccc2c1=O | -26.5
Cl.N=c1ccccn1Cc1ccccc1 | 31.5
O=C(CN(C(=O)c1csnn1)c1ccc(F)c(Cl)c1)NCc1ccccc1 | -2.43
CCCC(CCC(=O)Nc1nccs1)C(=O)O (stereo not shown) | 13.1
O=C1CSc2ccc(S(=O)(=O)N3CCN(c4ccccc4)CC3)cc2N1 | 8.82
Cc1cc(C)n(-c2nc(NC(C)(C)C)nc(NC(C)(C)C)n2)n1 | -6.46
Cc1cc(Nc2n[nH]c(N)c2C#N)ccc1F | -70.2
Cc1ccc(NC(=O)CSc2nc3ccccc3c(=O)n2Cc2cccs2)cc1 | 7.4
COc1ccccc1NS(=O)(=O)c1ccc(C(=O)NCc2ccncc2)cc1 | -14.3
Cc1ccc(C(=O)c2no[n+]([O-])c2C(=O)c2ccc(C)cc2)cc1 | -48
